# The supplement of paper PMC8728848
# The list shows a part of the results.
# Tests used:
# Experiment in all cases: glycan array binding signal (z-score within array); higher = stronger binding
# Details in all cases: glycan notation: IUPAC condensed, linker removed
# [1] = molecular target: Neu5Ac(a2-3)Gal(b1-4)GlcNAc(b1-6)GalNAc
# How it was run: (§1)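 The binding signal is a Z-score computed within each array and averaged over linkers. Arrays of the same protein sequence at different concentrations or buffers were also averaged together. Data originate from 3228 arrays in the Consortium for Functional Glycomics database, kept only where the protein sequence was available.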
# [2] = molecular target: Neu5Ac(a2-3)Gal(b1-4)GlcNAc(b1-6)[Gal(b1-3)]GalNAc
# How it was run: as §1
# [3] = molecular target: Neu5Ac(a2-3)Gal(b1-4)GlcNAc(b1-6)[Neu5Ac(a2-3)Gal(b1-3)]GalNAc
# How it was run: as §1
# [4] = molecular target: Neu5Ac(a2-3)Gal(b1-4)GlcNAc6S
# How it was run: as §1
# [5] = molecular target: Neu5Ac(a2-3)Gal(b1-4)[Fuc(a1-3)]GlcNAc
# How it was run: as §1
# [6] = molecular target: Neu5Ac(a2-3)Gal(b1-4)[Fuc(a1-3)]GlcNAc(b1-2)Man
# How it was run: as §1
# [7] = molecular target: Neu5Ac(a2-3)Gal(b1-4)[Fuc(a1-3)]GlcNAc(b1-3)Gal
# How it was run: as §1
# [8] = molecular target: Neu5Ac(a2-3)Gal(b1-4)[Fuc(a1-3)]GlcNAc(b1-3)Gal(b1-4)GlcNAc
# How it was run: as §1
# [9] = molecular target: Neu5Ac(a2-3)Gal(b1-4)[Fuc(a1-3)]GlcNAc(b1-3)Gal(b1-4)[Fuc(a1-3)]GlcNAc(b1-3)Gal(b1-4)[Fuc(a1-3)]GlcNAc
# How it was run: as §1
# [10] = molecular target: Neu5Ac(a2-3)Gal(b1-4)[Fuc(a1-3)]GlcNAc(b1-3)GalNAc
# How it was run: as §1
# [11] = molecular target: Neu5Ac(a2-3)Gal(b1-4)[Fuc(a1-3)]GlcNAc(b1-6)[Gal(b1-3)]GalNAc
# How it was run: as §1
# [12] = molecular target: Neu5Ac(a2-3)Gal(b1-4)[Fuc(a1-3)]GlcNAc(b1-6)[Neu5Ac(a2-3)Gal(b1-3)]GalNAc
# How it was run: as §1
# [13] = molecular target: Neu5Ac(a2-3)Gal(b1-4)[Fuc(a1-3)]GlcNAc6S
# How it was run: as §1
# [14] = molecular target: Neu5Ac(a2-3)Gal6S(b1-4)GlcNAc
# How it was run: as §1
# [15] = molecular target: Neu5Ac(a2-3)Gal6S(b1-4)[Fuc(a1-3)]GlcNAc
# How it was run: as §1
# [16] = molecular target: Neu5Ac(a2-3)GalNAc
# How it was run: as §1
# [17] = molecular target: Neu5Ac(a2-3)GalNAc(b1-4)GlcNAc
# How it was run: as §1
# [18] = molecular target: Neu5Ac(a2-3)[GalNAc(b1-4)]Gal(b1-4)Glc
# How it was run: as §1
# [19] = molecular target: Neu5Ac(a2-3)[GalNAc(b1-4)]Gal(b1-4)GlcNAc
# How it was run: as §1
# [20] = molecular target: Neu5Ac(a2-3)[GalNAc(b1-4)]Gal(b1-4)GlcNAc(b1-3)GalNAc
# How it was run: as §1
# [21] = molecular target: Neu5Ac(a2-3)[Neu5Ac(a2-6)]GalNAc
# How it was run: as §1
# [22] = molecular target: Neu5Ac(a2-6)Gal
# How it was run: as §1
# [23] = molecular target: Neu5Ac(a2-6)Gal(b1-3)GlcNAc(b1-3)[Gal(b1-4)GlcNAc(b1-6)]Gal(b1-4)Glc
# How it was run: as §1
# [24] = molecular target: Neu5Ac(a2-6)Gal(b1-4)Glc
# How it was run: as §1
# [25] = molecular target: Neu5Ac(a2-6)Gal(b1-4)GlcNAc
# How it was run: as §1
# [26] = molecular target: Neu5Ac(a2-6)Gal(b1-4)GlcNAc(b1-2)Man
# How it was run: as §1
# [27] = molecular target: Neu5Ac(a2-6)Gal(b1-4)GlcNAc(b1-2)Man(a1-3)Man(b1-4)GlcNAc(b1-4)GlcNAc
# How it was run: as §1
# [28] = molecular target: Neu5Ac(a2-6)Gal(b1-4)GlcNAc(b1-2)Man(a1-3)[Gal(b1-4)GlcNAc(b1-2)Man(a1-6)]Man(b1-4)GlcNAc(b1-4)GlcNAc
# How it was run: as §1
# [29] = molecular target: Neu5Ac(a2-6)Gal(b1-4)GlcNAc(b1-2)Man(a1-3)[GlcNAc(b1-2)Man(a1-6)]Man(b1-4)GlcNAc(b1-4)GlcNAc
# How it was run: as §1
# [30] = molecular target: Neu5Ac(a2-6)Gal(b1-4)GlcNAc(b1-2)Man(a1-3)[GlcNAc(b1-4)][Neu5Ac(a2-6)Gal(b1-4)GlcNAc(b1-2)Man(a1-6)]Man(b1-4)GlcNAc(b1-4)GlcNAc
# How it was run: as §1
binder,measurement,setting,value
"CBM13 2a (Mycobacterium tuberculosum), P64849 (protein) DGPVQLKSRLGDVCLDAPSGSWFSPLVINPCNGTDFQRWNLTDDRQVESVAFPGECVNIGNALWARLQPCVNWISQHWTVQPDGLVKSDLDACLTVLGGPDPGTWVSTRWCDPNAPDQQWDSVPLEHHHHHH",glycan array binding signal (z-score),[1],-0.144
same,glycan array binding signal (z-score),[2],-0.152
same,glycan array binding signal (z-score),[3],-0.238
same,glycan array binding signal (z-score),[4],-0.251
same,glycan array binding signal (z-score),[5],-0.242
same,glycan array binding signal (z-score),[6],-0.181
same,glycan array binding signal (z-score),[7],-0.247
same,glycan array binding signal (z-score),[8],-0.198
same,glycan array binding signal (z-score),[9],0.61
same,glycan array binding signal (z-score),[10],-0.157
same,glycan array binding signal (z-score),[11],0.119
same,glycan array binding signal (z-score),[12],-0.045
same,glycan array binding signal (z-score),[13],-0.35
same,glycan array binding signal (z-score),[14],-0.122
same,glycan array binding signal (z-score),[15],-0.271
same,glycan array binding signal (z-score),[16],-0.365
same,glycan array binding signal (z-score),[17],-0.302
same,glycan array binding signal (z-score),[18],-0.042
same,glycan array binding signal (z-score),[19],-0.18
same,glycan array binding signal (z-score),[20],4.49
same,glycan array binding signal (z-score),[21],-0.233
same,glycan array binding signal (z-score),[22],-0.219
same,glycan array binding signal (z-score),[23],-0.273
same,glycan array binding signal (z-score),[24],-0.207
same,glycan array binding signal (z-score),[25],-0.051
same,glycan array binding signal (z-score),[26],-0.293
same,glycan array binding signal (z-score),[27],-0.031
same,glycan array binding signal (z-score),[28],-0.051
same,glycan array binding signal (z-score),[29],0.122
same,glycan array binding signal (z-score),[30],-0.049
